Assay results published in the supplement of paper PMC4466236.
The full ranking holds about 33,000 sequences; the median of “E-score (dimensionless, -0.5 to 0.5)” is about -0.058, and the highest 2% start at about 0.35. The list shows a part of the results.

Tested on: MvaT
Test: PBM 8-mer E-score (mean of HK and ME arrays) (E-score (dimensionless, -0.5 to 0.5)); higher = stronger relative binding preference; most listed sequences are background and not binding sites
How it was run: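 Full-length P. aeruginosa MvaT, with glutathione S-transferase fused to its N-terminus (cloned into pTH6838 by isothermal assembly), was tested by protein binding microarray using a previously described protocol. Two universal double-stranded 60-mer arrays (ME and HK) were used, each with a constant 25-mer primer region and a variable 35-mer region covering all 8-mers. The rank-based 8-mer E-score (-0.5 to 0.5) is the mean of the two arrays, parsed with a custom Python script.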

Sequence | PBM 8-mer E-score
GTGTAGCA | -0.00783
CCTGCTTC | -0.157
CATATGCA | 0.164
GGAAGGCC | -0.328
GTGCAAAC | 0.0651
TACGAAGA | 0.1
AGCTTACT | -0.0495
CGTCAACA | -0.0821
AGCTTAGA | -0.0268
AGGTGATA | 0.0933
CAAGAGTG | -0.0498
CACCCGGG | -0.296
CCAGAAAG | -0.0666
AAGGCAGC | -0.077
ACATATTG | 0.281
GCTTACCC | -0.187
ATATTTCG | 0.345
AAGTATGC | 0.248
AAACGGGC | 0.0523
TCACTCAA | 0.0781
ATGCCGTC | -0.093
GCTTAATA | 0.352

Sequence | PBM 8-mer E-score
CATTCGAA | 0.0613
ATGGTCTG | -0.169
GATGGGAC | -0.226
GATGTAAC | 0.126
ATTCGTTG | 0.0414
AATTTGTC | 0.183
ATGCTCTA | -0.124
TATAAGAA | 0.369
CGGGTGAG | -0.162
TCCGACAA | -0.00754
CCTGCCAC | -0.0789
CTTTTCGC | 0.114
TCAAAACA | 0.149
ACTAGATG | -0.0453
CGGTGTCA | -0.0698
GAATGAAA | 0.168
CTTATAAG | 0.394
AACGGGTG | -0.155
ACCCGCTG | -0.0997
CCCCGGCG | -0.31
CTCCGACC | -0.298
AACACTCC | 0.0305

Sequence | PBM 8-mer E-score
AAAGCTCC | -0.295
ATCCGCAA | 0.0457
AACGTAGA | -0.0778
CTCTTGCC | -0.227
CAACTCCG | -0.00993
AGCTAAGC | -0.138
TACGCTCA | -0.149
CAGGGAAG | -0.284
CGGAGAAC | -0.221
TGGCGAAA | 0.0983
TAGCACAA | 0.0731
CTTCAATA | 0.244
GTGATAAA | 0.211
GCGTCCAA | -0.139
AGTCACAG | -0.131
CCCCCGCA | -0.166
CAGAAAGG | -0.16
TTACGCAA | 0.167
AACAGTGA | -0.025
GTACAGTA | 0.0682
CAATACCC | 0.102
TCCGAAGA | -0.0726

Sequence | PBM 8-mer E-score
CGCAATAG | 0.111
CGATGGCA | -0.11
ACCGACGG | -0.163
AACGCATA | 0.142
CTGTGTTC | -0.0932
CGATGATA | 0.0601
CAGGGTCC | -0.336
CAGATTAC | 0.117
ACGATGTA | -0.0246
ACAGTGGA | 0.0474
CGAGCGTA | -0.121
CATAGCTC | -0.149
AACTCGAG | 0.0357
GAAGGGAA | -0.147
CTTAATAC | 0.286
ACCTCTCC | -0.143
AAAGATCG | -0.0318
CGTCTCAG | -0.227
TAAGACTA | 0.104
GAGAATCC | -0.189
GAATTTGA | 0.118
ATTAACAC | 0.328

Sequence | PBM 8-mer E-score
CTTTGGTA | 0.0478
GCCCACCA | -0.231
CCCAAGCG | -0.301
AACTTGTA | 0.283
CTTAAAGA | 0.073
CATAACAG | 0.111
AGGAACGG | -0.278
AAGAACCC | -0.093
GAGTGTCA | -0.078
AGAGTGCA | -0.0217
TAGACGAA | -0.11
ATTTACCC | 0.21
GGAGTGTA | 0.042
ACCATAAA | 0.173
CCCAATAC | 0.0452
ACAGGGAA | -0.0133
AGCCCAGC | -0.255
AATTGTAA | 0.305
GGAGCTAC | -0.24
AGAGTCTG | -0.103
ACGCTCGC | -0.127
AGCTAATC | -0.0533
